Several values for one entry are separate records, joined by “and”; a condition that tells them apart may be missing. Equal entries are not always repeated.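 How tested: cells in 96-well plates exposed to compound for 48 hours at five concentrations. Abbreviation: GI50, concentration required for 50% inhibition of growth. TGI marks complete inhibition of growth.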
Test system: NCI-H322M lung
Experiment: growth of human tumour cells (NCI), 48 h

Row | Structure (SMILES) | TGI | GI50
1 | CN(C)CC(C)(C)C(/C=C/c1ccccc1)=N\Nc1ccccc1 | > 100 µM | 
2 | COc1cc(/C=C/C(=O)C(C(=O)/C=C/c2ccc(OC(=O)CCNc3nnc(C)s3)c(OC)c2)C(=O)CCNc2nnc(C)s2)ccc1OC(=O)CCNc1nnc(C)s1 | 18.6 µM | 6.77 µM
3 | c1nc(SSc2ncnc3nc[nH]c23)c2[nH]cnc2n1 | > 31.5 µM | 
4 | O=C1CSC(=S)N1Cc1cccnc1 | 72.9 µM | 24.3 µM
5 | COc1cc(/C=C/c2sc3ccccc3[n+]2C)ccc1N(C)C | 45.4 µM | 
6 | Cc1ccc(S(=O)(=O)N/N=C/c2oc(-c3ccccc3Cl)c(-c3ccccc3Cl)c2[N+](=O)[O-])cc1 | > 100 µM | 
7 | O=C1Cc2ccccc2N1c1c(Cl)cccc1Cl | > 100 µM | 
8 | Cc1cc(NS(=O)(=O)c2ccc(NC(=O)c3cccc4cc5ccccc5nc34)cc2)no1 | 58.2 µM | 
9 | CCN(CC)CCC(=O)N1CCc2c([nH]c3ccccc23)C1c1cccnc1 (stereo not given) | > 100 µM | 
10 | Cc1nc(N)c(N2CCN(Cc3ccccc3)CC2)c(=O)[nH]1 | > 100 µM | 
11 | CCOCC(=O)N[C@H]1CCc2cc(OC(=O)COCC)c(OC)c(OC)c2-c2ccc(SC)c(=O)cc21 | > 100 µM | 0.0464 µM
12 | COc1ccc(/C=C(\C(=O)OCC(C)C)c2ccc(OC)c(OC)c2)cc1OC | > 100 µM | 
13 | CCOC(=O)/C=C(\C(=O)OCC)n1cnc2c(N)ncnc21 | 30.2 µM | 
14 | CC(C)(C)c1cn2cccc(C(=O)N3CCN(CC(=O)Nc4ccc(Cl)cc4C(=O)c4ccccc4Cl)CC3)c2n1 | 83.9 µM | 22.5 µM
15 | CCOC(=O)N[C@H]1CCc2cc(O)c(OC)c(OC)c2-c2ccc(SC)c(=O)cc21 | > 16.4 µM | 
16 | NC(CCCCN=Cc1nc(-c2ccccc2)oc1O)C(=O)O (stereo not given) | > 100 µM | 
17 | CCCC(=O)/C=C/S/C=C/C(=O)CCC | 38.8 µM | 
18 | O=C1c2ccccc2C(=O)C2C3c4ccccc4C(c4ccccc43)C12 (stereo not given) | > 100 µM | 
19 | COc1cc(-n2cc(-c3ccc(F)cc3)[nH]c2=S)cc(OC)c1OC | > 100 µM | > 100 µM
20 | CC(C)[Si](OCC1CC(C[C@H]2CC(C[C@H]3C[C@@H](CO[Si](C(C)C)(C(C)C)C(C)C)OC(C)(C)O3)OC(C)(C)O2)OC(C)(C)O1)(C(C)C)C(C)C (stereo not given in full) | > 100 µM | 
21 | CC1CC(C)/C(=N/NC(N)=O)C(C(O)CC2CCC(=O)NC2=O)C1 (stereo not given) | 49.7 µM | 3.96 µM
22 | O=c1c2ccccc2c2c1c1c3ccccc3c(=O)c1c1c3ccccc3c(=O)c21 | > 100 µM | 
23 | Cc1cc(C)nc(NS(=O)(=O)c2ccc(NNC(=O)c3cccc4c(NNc5ccc(S(=O)(=O)Nc6nc(C)cc(C)n6)cc5)c5ccccc5nc34)cc2)n1 | 45.2 µM | 
24 | O=C(NCC(=O)N1CC[C@H](NC2CCC(O)(c3ccc(-c4ncccn4)cn3)CC2)C1)c1cccc(C(F)(F)F)c1 (stereo not given in full) | > 100 µM | > 100 µM
25 | Cc1nn(-c2ccccc2)c2c1C(c1cc3ccccc3nc1Cl)NC(=S)N2 (stereo not given) | > 100 µM | 

Row | Structure (SMILES) | TGI | GI50
26 | Cn1cnc([N+](=O)[O-])c1SC1=NCCS1 | > 100 µM | 
27 | O=c1oc2ccc(F)cc2c(=O)n1-c1ccc(Cl)cc1F | > 29 µM | 0.691 µM
28 | N#CC(C#N)=Cc1ccc(C=C2SC3=C(SCCS3)S2)s1 | > 100 µM | 
29 | O=C(O)CSc1nnc(CCCCCCCCc2nnc(SCC(=O)O)o2)o1 | > 100 µM | 
30 | O=C(CC(O)c1ccncc1)c1ccccc1 (stereo not given) | > 100 µM | 28.5 µM
31 | CC(=O)c1c(O)ccc2c(C)c(C(=O)O)oc12 | > 100 µM | > 100 µM
32 | Cc1cc(N(CCC#N)CCC#N)ccc1/C(N=Nc1ccccc1)=N\NC(=O)c1ccccc1 | > 100 µM | 
33 | O=c1[nH]cc(N(CCCl)CCCl)c(=O)[nH]1 | 333 µM | 
34 | CO/N=C(\COc1ccc2c(c1)oc(=O)c1cc(OC)ccc12)c1cccc(OC)c1 | > 100 µM | > 100 µM
35 | COC(=O)c1oc2c(O)c(OC)c(Br)cc2c1C | 42.4 µM | 15.8 µM
36 | O=C(CC/C(CC(=O)c1ccc(Cl)cc1)=N/O)Nc1ccc(Cl)c(Cl)c1 | > 100 µM | 
37 | Clc1ccc2c(c1)CC1C[N+]3=C(CCCC3)C1=C2 (stereo not given) | > 100 µM | 
38 | NC(N)=N/N=C(/c1ccccc1)c1ccc(Cl)cc1 | > 100 µM | 34.9 µM
39 | O=C(O)c1cncc(C(=O)O)c1 | > 100 µM | 
40 | COc1cc(S(=O)(=O)Nc2ccc(-c3csc(N4C(=O)C(C)SC4c4ccccc4O)n3)cc2)ccc1Cl (stereo not given) | > 100 µM | 
41 | O=C1NC(N/N=C/c2ccccc2)=N/C1=C\c1cccs1 | 51.3 µM | 
42 | COc1ccc(-c2oc3cc(OC)c(OC)c(OC)c3c(=O)c2OC)cc1OC | > 100 µM | 
43 | COc1cc(Nc2ncc3c(C)nc(-c4cccc(Oc5ccccc5)c4)n3n2)cc(OC)c1OC | > 25 µM | 5.57 µM
44 | Cc1ccc([N+](=O)[O-])cc1NC(=O)C(=O)Cc1cc(=O)oc2cc(O)ccc12 | > 100 µM | 
45 | C=C(C)[C@@H]1CC[C@]2(C(=O)O)CC[C@]3(C)[C@H](CC[C@@H]4[C@@]5(C)C[C@@H](CC#Cc6ccc(Br)cc6)C(=O)C(C)(C)[C@@H]5CC[C@]43C)[C@@H]12 | > 100 µM | 15.5 µM
46 | NC(N)=NS(=O)(=O)c1ccc(Nc2c3ccccc3nc3c(C(=O)NC(CO)(CO)CO)cccc23)cc1 | 75.1 µM | 
47 | O[C@@H]1CCCN1Cc1cc2cc3c(cc2c2cc(OCc4ccccc4)ccc12)OCO3 | 13.2 µM | 3.76 µM
48 | CO/N=C(\COc1ccc2c(c1)oc(=O)c1cc(OC)ccc12)c1ccc(F)cc1 | 54 µM | 18.2 µM
49 | O=c1oc2cccnc2n1CCN1CCN(c2ccc(Oc3ccccc3)cc2)CC1 | > 100 µM | 
50 | C=C(CN(C)C)C(=O)c1cc(C)ccc1C | 43.6 µM | 

Row | Structure (SMILES) | TGI | GI50
51 | O=NNc1cnccn1 | > 1250 µM | 
52 | CCOC(=O)C1(C(=O)OCC)CSC1 | 10.3 µM | 
53 | Fc1ccc(NCn2nc(COc3ccccc3Cl)n(/N=C/c3ccc(-c4ccc(Cl)cc4Cl)o3)c2=S)cc1Cl | > 100 µM | 
54 | CC(=O)OCC1OC(n2c3c(cc(C#N)c2=S)CCCCCC3)C(OC(C)=O)C(OC(C)=O)C1OC(C)=O (stereo not given) | > 100 µM | 
55 | O=c1[nH]c(=O)n(C2OC(CO)C(O)C2O)cc1OCCc1ccccc1 (stereo not given) | > 100 µM | 
56 | COc1ccc(Cn2cnc3cc(C(=O)Nc4cccc5ccccc45)ccc32)c(OC)c1 | > 100 µM | 0.141 µM
57 | CC1(C)CCCCCC(C)(CCCCCCCCCCCO)C1=O (stereo not given) | 28.6 µM | 
58 | c1ccc(SC(Sc2ccccc2)c2ccc3c(c2)OCO3)cc1 | > 100 µM | 
59 | Cc1ccc(S(=O)C[C@@]2(C(F)F)NC(=O)NC2=O)cc1 (stereo not given in full) | > 100 µM | 
60 | N#CCCN(CCC#N)c1ccc(/C=N\c2nc(-c3ccccc3)cs2)cc1 | > 100 µM | 
61 | Cc1[nH]n(-c2ccc(S(=O)(=O)O)cc2)c(=O)c1N=Nc1ccccc1 | > 100 µM | 
62 | CCN(CC)CCC(=O)c1ccccc1 | > 100 µM | 
63 | CC(=O)NC(CCCCNC(=O)OC(C)(C)C)C(=O)O (stereo not given) | > 100 µM | 
64 | O=C1C=CC[C@H](/C=C/C[C@@H](O)C[C@H](O)/C=C/c2ccccc2)O1 | 20.6 µM | 
65 | O=Cc1[nH]c(=O)[nH]c(=O)c1CCl | > 100 µM | 
66 | CCCCCCCCCCCCCC(=O)OC(/C=C/C(C)C)C(O)C(O)C(OC)C(=O)NC1CCCCNC1=O (stereo not given) | 6.94 µM | 
67 | CNc1cccnc1/C=N/NC(N)=S | > 10 µM | 
68 | CC(=O)[O-].[Ni].c1ccc(/C(=N\Nc2ccccn2)c2ccccn2)cc1 | 29.7 µM | 
69 | CC(C)CCNC(=O)c1ccc(CNC(=O)/C=C/c2csc(-c3ccccc3)n2)cc1 | > 100 µM | 
70 | COc1cc2c3c(n(CCCCNC(=O)OCC4c5ccccc5-c5ccccc54)c(=O)c2cc1OC)-c1cc2c(cc1C3=O)OCO2 | > 100 µM | 35.7 µM
71 | O=C(N1CCC(CN=c2cc3n(-c4ccc(Cl)cc4)c4ccccc4nc-3cc2Nc2ccc(Cl)cc2)CC1)N1CC1 | 3.24 µM | 1.78 µM
72 | COc1cc(-c2c3c([nH]c(=O)c2C#N)-c2cc([N+](=O)[O-])ccc2CCC3)cc(OC)c1OC | > 100 µM | 
73 | CC(C)=CCc1ccc(O)c(=O)cc1C(C)C | > 30.9 µM | 0.378 µM
74 | O=C(Nc1ccc(Cl)cc1)c1ccc([N+](=O)[O-])o1 | 12.4 µM | 4.73 µM
75 | CCN(CC)CCCNc1nc2ccccc2c2c(=O)c3cc(Cl)ccc3sc12 | 19.3 µM | 6.12 µM

Row | Structure (SMILES) | TGI | GI50
76 | Oc1ccc2c3c1OC1C(=NN=C4CCC5(O)C6Cc7ccc(O)c8c7C5(CCN6CC5CC5)C4O8)CCC4(O)C(C2)N(CC2CC2)CCC314 (stereo not given) | > 100 µM | 
77 | CC1C2(C)OC(=N)C(C#N)(C(c3ccco3)O2)C1(C#N)C#N (stereo not given) | > 100 µM | 
78 | Cc1ccc(NC(=O)C(=O)C2NC(=S)NC2=O)c([N+](=O)[O-])c1 (stereo not given) | > 100 µM | 
79 | COC(=O)c1c(C)cc2c(c1O)C1(O)C(=O)c3cc4c(c(O)c3C(=O)C1(OC)C(O)C2)C(=O)C=C(NC1OC(C)C(OC)C(O)C1OC)C4=O (stereo not given) | 0.955 µM | 
80 | Cn1c(=O)c2nc3nnc(C#N)c(N)n3c2n(C)c1=O | > 100 µM | 
81 | N#CCc1ccc(/C(C#N)=C2/OC(=N)C(c3ccc(CC#N)cc3)C2=O)cc1 (stereo not given) | > 100 µM | 
82 | C[N+](C)(C)Cc1c(CC#N)[nH]c2ccccc12 | > 100 µM | 
83 | CN(C)CS/C(N)=N\C(O)C(Cl)(Cl)Cl (stereo not given) | > 100 µM | 
84 | O=C(Nc1nncs1)NS(=O)(=O)n1cnc2ccccc21 | > 100 µM | 
85 | Cn1cnc([N+](=O)[O-])c1Sc1nc2cccnc2s1 | > 100 µM | 
86 | O=C(N/N=c1/ccoc2cccnc12)N1CCN(c2ncccn2)CC1 | 10.9 µM | 0.273 µM
87 | C/C=C(\CCC1NCCc2c1[nH]c1ccccc21)[Si](C)(C)C (stereo not given) | 20 µM and 9.95 µM | 8.28 µM and 3.23 µM
88 | COc1cc2c3c(n(CCCNC(=O)OCC4c5ccccc5-c5ccccc54)c(=O)c2cc1OC)-c1cc2c(cc1C3=O)OCO2 | > 100 µM | 62.2 µM
89 | CC(=O)N1C(C(=O)NNc2ccccc2)CSC1c1ccccc1 (stereo not given) | > 100 µM | 
90 | COC(=O)C1=COC2OC3/C(=C\c4ccc(O)c(OC)c4)C(=O)OC34C=CC1C24 (stereo not given) | 34 µM | 
91 | COc1cccc(C2C(C(=O)O)=C(CO)Oc3cc4c(cc32)OCO4)c1 (stereo not given) | > 100 µM | 
92 | CC(=O)Nc1ccc(S(=O)(=O)[N-]C2C(=O)c3ccccc3C(=O)C2[n+]2ccccc2)cc1 (stereo not given) | > 100 µM | 
93 | COc1ccc(C(=O)Cn2c(C(C)=O)nc3ccccc32)cc1 | > 100 µM | 
94 | CNC(=O)c1n[nH]n(Cc2ccccc2)c1=S | > 100 µM | 
95 | COc1cc(C2c3[nH]c4ccc(F)cc4c3C[C@H]3COC(=O)N23)cc(OC)c1O (stereo not given in full) | > 100 µM | 
96 | O=C(N/N=C/C=C/c1ccc([N+](=O)[O-])o1)c1ccc(Br)s1 | > 100 µM | 
97 | COc1cc2c(cc1OCCCCCn1c(-c3ccco3)nc3ccccc31)N=C[C@@H]1CCCN1C2=O |  | 0.0277 µM
98 | COc1ccccc1-c1nc2ccccc2c(=O)[nH]1 | > 100 µM | 
99 | CCN(CC)c1nc(N(C)C)c2ccc(OC)cc2n1 | 36 µM | 
